Measurements: PubChem BioAssay AID485364 (National Center for Advancing Translational Sciences (NCATS), 2010)
About 11,000 (3.1%) of roughly 360,000 compounds were called active. This list was built around the results that the source calls inconclusive (neither active nor inactive); the mix of calls is not that of the screen. Calls come from the whole dose curve; as a rule, active = well fitted inhibition curve with a large enough effect; inconclusive = small, poorly fitted or top-dose-only effect; inactive = no such curve, though single readings can be large or run the other way. Potencies of inconclusive entries are left out as doubtful fits.

biological target: Schistosoma mansoni thioredoxin glutathione reductase (TGR) (UniProt Q962Y6); experiment: qHTS Assay for the Inhibitors of Schistosoma Mansoni Peroxiredoxins; settings: purified TGR, DTNB reduction, TNB absorbance 405 nm; activity change, negative = inhibition: at 114 µM (top of the series) unless noted; note: nearly all actives have a fitted effect of over 60% in size
Procedure, shortened: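 Kinetic colorimetric format: TGR-catalysed, NADPH-driven DTNB reduction monitored via TNB absorbance. Enzyme dispensed at 20 nM; compound exposure 15 min at room temperature before reaction start.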
% is set by controls: 0 for no effect and ±100 for the full control effect; potency is the fitted concentration of half-maximal effect; tags give direction and shape of the fitted curve.

Row | SMILES | Potency | activity change, negative = inhibition
1 | O=C1c2c(O)cc(O)cc2O[C@H](c2ccc(O)c(O)c2)[C@@H]1O | inconclusive [inhibitor, full curve] | –
2 | CCN1CCc2c(sc(NC(=O)C3COc4ccccc4O3)c2C(N)=O)C1 (stereo unspecified) | – | inactive: -21.9%
3 | O=[N+]([O-])c1cc(-c2ccc([As](=O)(O)O)cc2)ccc1[As](=O)(O)O | active: 8.91 µM | –
4 | O=C(N/C=C/c1ccco1)NCc1ccccc1 | active: 25.1 µM | –
5 | Cc1ccc(C)c(NC(=S)Nc2cccc3cnccc23)c1 | inconclusive [inhibitor, partial curve] | –
6 | CS(=O)(=O)N(CC(=O)NCc1ccco1)c1ccc2c(c1)OCO2 | inconclusive [inhibitor, single point] | –
7 | O=C(NC12CC3CC(CC(C3)C1)C2)c1ccc(-c2cccc(Cl)c2)o1 | inconclusive [inhibitor, partial curve] | –
8 | Cc1[nH]c2ccccc2c1C(c1ccccn1)N1CCC(C)CC1 (stereo unspecified) | inconclusive [inhibitor, single point] | –
9 | CCOC(=O)c1c(CCl)nc2ccccc2c1C | inconclusive [inhibitor, full curve, poor fit] | –
10 | COc1ccc(-c2nc(CSCC(=O)NC3CCCC3)c(C)o2)cc1OC | inconclusive [inhibitor, partial curve] | –
11 | COc1ccc([N+](=O)[O-])cc1NC(=O)C(C)OC(=O)/C=C/c1ccco1 (stereo unspecified) | active: 50.1 µM | –
12 | O=C(CCN1C(=O)c2ccccc2S1(=O)=O)Nc1cccc2ccccc12 | – | inactive: 6.98%
13 | Cc1cc(Br)ccc1NC(=O)CN(C)C(=O)CN1C(=O)NC(C)(C2CC2)C1=O (stereo unspecified) | – | inactive: -6.55%
14 | Cc1ccc(NC2c3ncccc3C(=O)N2C2CCCCC2)cc1C (stereo unspecified) | – | inactive: -6.88%
15 | CCCCCn1c(NC(=O)c2ccco2)c(S(=O)(=O)c2ccc(C)cc2)c2nc3ccccc3nc21 | inconclusive [inhibitor, partial curve, poor fit] | –
16 | O=C(O)/C=C/c1cn(-c2ccccc2)nc1-c1cccc([N+](=O)[O-])c1 | – | inactive: 8.29%
17 | COc1ccc(CCNC(=O)CCCn2c(=O)c3ccccc3n(CC(=O)Nc3cccc(C)c3)c2=O)cc1OC | – | inactive: -0.638%
18 | CCOc1ccc(CC(=O)C2=C(N3CCOCC3)CC(C)(C)CC2=O)cc1OCC | active: 7.94 µM | –
19 | CC1=Nn2c(nc(-c3ccccc3)c2-c2ccccc2)NC(=O)C1Br (stereo unspecified) | inconclusive [inhibitor, partial curve] | –
20 | CCn1c(=O)c(C(=O)CN(C)Cc2ccc(F)cc2)c(N)n(Cc2ccccc2)c1=O | – | inactive: 3.75%
21 | CCOc1ccccc1C(=O)NC(C)c1ccc(-n2ccnc2)cc1 (stereo unspecified) | inconclusive [inhibitor, partial curve, poor fit] | –
22 | O=c1[nH]c2cc3c(cc2cc1C(c1nnnn1Cc1ccccc1)N1CCN2CCCC2C1)OCCO3 (stereo unspecified) | inconclusive [inhibitor, single point] | –
23 | COc1ccc(N2C(=O)NC(=O)/C(=C\c3cn(C)c4ccccc34)C2=O)cc1 | inconclusive [inhibitor, partial curve] | –
24 | CCOC(=O)c1sc2nc(CC(=O)OC)nc(NCc3ccco3)c2c1C | active: 44.7 µM | –

Row | SMILES | Potency | activity change, negative = inhibition
25 | Cc1c(Cl)cccc1NC(=O)CSc1sc2c(O)cc(=O)[nH]c2c1C#N | inconclusive [inhibitor, partial curve] | –
26 | O=C(CSc1nc2ccc(Cl)cc2[nH]1)N1CCN(C(=O)c2ccco2)CC1 | active: 50.1 µM | –
27 | CCCn1c(SCC(=O)N2c3ccccc3CCc3ccccc32)nc2c1c(=O)n(C)c(=O)n2C | – | inactive: 8.09%
28 | Cc1oc(C(=O)O)cc1COc1cccc2cccnc12 | inconclusive [inhibitor, partial curve] | –
29 | CCCCOC(=O)Oc1ccc2c(=O)c(Oc3cc(C)cc(C)c3)coc2c1 | inconclusive [inhibitor, single point] | –
30 | N#Cc1nc(-c2ccccc2Cl)oc1NCC1CCCO1 (stereo unspecified) | – | inactive: 78%
31 | Cc1ccc(Cl)cc1NC(=O)CCCn1c(=O)c2cccn2c2ccccc21 | inconclusive [inhibitor, partial curve] | –
32 | COc1ccc2c3c(c(=O)oc2c1)C1O[C@](c2ccsc2)(Cc2cc(C#N)ccc21)O3 | active: 6.31 µM | –
33 | CCOc1ccc(NC(=O)N2CCC(CN3CCCCCC3)CC2)cc1 | inconclusive [inhibitor, partial curve] | –
34 | C=CCNC(=S)Nc1cccc2[nH]ncc12 | inconclusive [inhibitor, partial curve] | –
35 | COc1cc(C2c3c(n[nH]c3C)C(=O)N2c2ccc(C)cc2)ccc1O (stereo unspecified) | inconclusive [inhibitor, partial curve, poor fit] | –
36 | O=C(CCS(=O)(=O)c1ccccc1)N(Cc1cccnc1)c1nc2c(Cl)cccc2s1 | active: 1.58 µM | –
37 | Cc1ccc(C(=O)NCC(=O)OCC(=O)N2CCCc3ccccc32)cc1 | – | inactive: -20.8%
38 | CCC(C(=O)OC)n1cnc2c(nnn2-c2cccc(Cl)c2)c1=O (stereo unspecified) | inconclusive [inhibitor, single point] | –
39 | O=C(c1c(Cl)cccc1Cl)N1CCN(c2cccc3[nH]ccc23)CC1 | inconclusive [inhibitor, partial curve] | –
40 | CN1CC(C(=O)c2cccc(C(F)(F)F)c2)C(c2ccc(Cl)cc2)C1 (stereo unspecified) | – | inactive: -2.72%
41 | CC(C)(C)c1cc(CN2CCOCC2)c(C(=O)O)o1 | – | inactive: 2.18%
42 | COc1ccc(CN(C)S(=O)(=O)c2nnc(NC(=O)C(C)C)s2)cc1OC | inconclusive [inhibitor, single point] | –
43 | O=C(NC(=S)Nc1ccc(C(=O)N2CCOCC2)cc1)c1ccc([N+](=O)[O-])cc1 | inconclusive [inhibitor, full curve] | –
44 | CCc1sc(C(=O)NCc2ccco2)cc1Br | inconclusive [inhibitor, single point] | –
45 | COc1cc(C(=O)Nc2cc(-c3cn4cccnc4n3)ccc2C)cc(OC)c1OC | – | inactive: 16%
46 | Oc1ccc(/C=C/c2nc(-c3ccccc3O)n(-c3ccccc3)n2)c(O)c1 | – | inactive: -8.01%
47 | CCOC(=O)c1c(C)[nH]c(C(=O)COC(=O)c2ccccn2)c1C | inconclusive [inhibitor, partial curve] | –
48 | Cc1ccc(-c2nn(-c3ccccc3)cc2C=O)o1 | active: 12.6 µM | –

Row | SMILES | Potency | activity change, negative = inhibition
49 | CC(=O)NC(CC(C)C)C(=O)NC(=O)NCc1ccccc1 (stereo unspecified) | inconclusive [inhibitor, single point] | –
50 | O=C(c1ccccc1)c1ccc(N2CCOCC2)c(NC(=O)c2ccco2)c1 | inconclusive [inhibitor, partial curve] | –
51 | Cc1cc(/C=N/O)c(C)n1-c1ccc(Br)cc1 | – | inactive: -12%
52 | Cc1c(NC(=O)C(C)N2CC(C)OC(C)C2)c(=O)n(-c2ccccc2)n1C (stereo unspecified) | inconclusive [inhibitor, partial curve] | –
53 | CC(C)=C1C2C=CC1C(C(=O)Nc1cccc(C)c1)C2C(=O)O (stereo unspecified) | inconclusive [inhibitor, partial curve] | –
54 | Cc1nnc(NC(=O)CSc2ccc3nnc(-c4ccccn4)n3n2)s1 | – | inactive: 0.704%
55 | S=C(NCc1ccco1)Nc1ccccc1 | inconclusive [inhibitor, partial curve] | –
56 | CC(C)[C@H](NC(=O)c1ccccc1)C(=O)OCC(=O)c1ccc2c(c1)NC(=O)CO2 | active: 35.5 µM | –
57 | O=C(O)c1ccc(CN2C(=O)c3cccc4c([N+](=O)[O-])ccc(c34)C2=O)cc1 | active: 17.8 µM | –
58 | O=C(NCc1ccccn1)c1ccc(Cl)cc1Cl | – | inactive: 1.48%
59 | O=C(O)c1ccc(/C=C(\c2nc3ccccc3[nH]2)c2nc3ccccc3s2)cc1 | inconclusive [inhibitor, partial curve, poor fit] | –
60 | COc1ccccc1CC(=O)Nc1ccc(S(=O)(=O)N2CCN(C)CC2)cc1 | – | inactive: -15.1%
61 | C[C@@H](C(=O)NC1CCCCC1)N1C(=O)N2CCc3c([nH]c4ccccc34)[C@@]2(C)C1=O | – | inactive: 4.59%
62 | CC(C)n1c(SCC(=O)NCc2ccco2)nc2c1c(=O)n(C)c(=O)n2C | inconclusive [inhibitor, partial curve] | –
63 | O=C(CCCc1ccccc1)NC1CC(=O)N(c2ccc(Cl)cc2)C1 (stereo unspecified) | – | inactive: 0.805%
64 | Cc1nc(CCNC(=O)CC2C(=O)NCCN2Cc2ccccc2)sc1C (stereo unspecified) | inconclusive [inhibitor, partial curve] | –
65 | CC(=O)c1c(C)[nH]c(C(=O)CN2CCN(S(=O)(=O)c3ccc(C(C)C)cc3)CC2)c1C | inconclusive [inhibitor, full curve] | –
66 | Cc1[nH]nc2c1C1(CCN(Cc3ccccc3)CC1)C(C#N)=C(N)O2 | inconclusive [inhibitor, partial curve] | –
67 | COc1cc(NS(=O)(=O)c2ccc3[nH]c(=O)[nH]c3c2)cc(OC)c1 | inconclusive [inhibitor, single point] | –
68 | O=C(CC1SC(=O)N(c2ccccc2)C1=O)Nc1ccc(Br)cc1 (stereo unspecified) | active: 3.16 µM | –
69 | Cc1cc(NC(=O)c2cccc(F)c2)no1 | inconclusive [inhibitor, full curve, poor fit] | –
70 | Cc1ccc(NC2=C(N3CCOCC3)C(=O)c3ccccc3C2=O)cc1 | inconclusive [inhibitor, full curve] | –
71 | CCCCC1=CC2=C(c3ccco3)C(=O)C(C)(OC(=O)c3ccc(OC)cc3)C(=O)C2=CN1C1CCCCC1 (stereo unspecified) | inconclusive [inhibitor, full curve] | –
